In PubChem BioAssay (NCATS):
The shares of active, inactive and inconclusive entries below differ from those in the screen. A potency beside an inconclusive call is a rough fit, not a confirmed value. Active and inactive are the calls of the source. The call rests on the fitted dose curve; in most records, active means well fitted activation curve with a large enough effect; inconclusive means small, poorly fitted or top-dose-only effect; inactive means no such curve, though single readings can be large or run the other way.

Molecular target: Cellular tumor antigen p53 (Homo sapiens) (UniProt P04637)
Assay: Primary qHTS for small molecule compounds that upregulate eGFP-tagged delta133p53alpha (in N-terminal) cells. (AID 2060322);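 further: cells pre-induced with doxycycline then dosed without doxycycline; nearly all actives have a fitted effect of over 75% in size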;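 on activation: series mostly up to about 56 µM; 0% = DMSO vehicle and 100% = reference activator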
Conditions: NCI-H358 eGFP-delta133p53alpha fluorescence, 24 h; activation: hits give high values
Summary of the method: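 NCI-H358 cells pre-induced 24 h with 10 ng/ml doxycycline for eGFP-delta133p53alpha, plated dox-free and exposed 24 h at 37C to titrated compounds. Fixed, Hoechst-stained; gated GFP peak intensity by laser scanning cytometry, normalized to DMSO (0%) and 57.5 uM 5-azacytidine (100%).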
Potency means the concentration at half of the fitted maximal effect; tags describe the fitted curve by direction and shape.

Chain of UniProt P04637 (P04637 whole entry, looked up): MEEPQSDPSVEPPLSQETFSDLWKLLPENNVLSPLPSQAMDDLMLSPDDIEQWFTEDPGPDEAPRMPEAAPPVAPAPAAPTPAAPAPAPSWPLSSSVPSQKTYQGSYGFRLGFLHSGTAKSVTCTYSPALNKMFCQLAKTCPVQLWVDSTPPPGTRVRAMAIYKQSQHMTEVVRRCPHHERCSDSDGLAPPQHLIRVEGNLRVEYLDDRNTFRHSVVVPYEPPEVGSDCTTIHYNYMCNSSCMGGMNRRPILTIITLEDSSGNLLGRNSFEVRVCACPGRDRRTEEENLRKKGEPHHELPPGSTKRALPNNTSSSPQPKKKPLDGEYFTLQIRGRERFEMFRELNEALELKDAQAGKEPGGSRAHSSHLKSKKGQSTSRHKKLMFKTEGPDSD

Row | SMILES | Potency | activation
1 | COc1ccc(N(C(=O)Nc2c(C)cccc2C)c2cc(Nc3ccc(N4CCN(C)CC4)cc3)ncn2)c(OC)c1 | inconclusive: 33.8 µM [activator, single point] | –
2 | Nc1nc2c(ncn2[C@@H]2O[C@@H]3COP(=O)(O)O[C@H]3[C@H]2O)c(=O)[nH]1 | – | inactive: 12.3%
3 | O=C1C=CC2OC(c3ccccc3)C(O)C2O1 (stereo unspecified) | active: 30.1 µM | –
4 | O=C(CS)Nc1ccccc1 | inconclusive: 21.9 µM [activator, single point] | –
5 | CC(=O)OC/C=C(\C)C(CC1C(C)=C(OC(C)=O)C(=O)C2C(C)(C)C(O)CCC12C)OC(C)=O (stereo unspecified) | – | inactive: -2.68%
6 | CCCC1O[C@@H]2C[C@H]3[C@@H]4CCC5=CC(=O)C=C[C@]5(C)[C@H]4[C@@H](O)C[C@]3(C)[C@]2(C(=O)CO)O1 (stereo partly specified) | – | inactive: -22.8%
7 | NS(=O)(=O)OC[C@@H]1C[C@@H](n2ccc3c(N[C@H]4CCc5ccccc54)ncnc32)C[C@H]1O | inconclusive: 4.32 µM [activator, partial curve, poor fit] | –
8 | C[C@H](NCc1ccc(OCc2cccc(F)c2)cc1)C(N)=O | active: 24.3 µM | –
9 | CCOC(=O)N1CCC(=C2c3ccc(Cl)cc3CCc3cccnc32)CC1 | inconclusive: 17.4 µM [activator, partial curve, poor fit] | –
10 | C[C@@H](O)[C@H]1C(=O)N2C(C(=O)OCOC(=O)C(C)(C)C)=C(SC3CN(C4=NCCS4)C3)[C@H](C)[C@H]12 | – | inactive: -12.3%
11 | COC1CC(O[C@H]2CC[C@@]3(C)C(=CC[C@]4(O)C3[C@H](OC(C)=O)[C@@H](OC(=O)c3ccccc3)[C@]3(C)[C@@H](C(C)=O)CC[C@@]34O)C2)OC(C)C1OC1CC(OC)C(OC2CC(OC)C(OC3OC(C)C(OC4OC(CO)C(O)C(O)C4O)C(OC)C3O)C(C)O2)C(C)O1 (stereo partly specified) | inconclusive: 0.0014 µM [activator, full curve, poor fit] | –
